{
  "source": "the RNAGym collection of RNA variant scans (doi:10.7554/elife.90254)",
  "parents": {"B1": {"name": "LINE1-mini (parent)", "chain": "GGCAGAGCUCAACACAGCGUGGCAAAGUGGCUGUGGCUAGACUGCC"}},
  "note": "The source gives no read counts; variants with many changes may rest on few reads.",
  "data": [
    {"variants_of": "B1", "test": "self-cleavage, relative activity (ratio to wild type); higher = more cleavage; in vitro, sequencing; the parent is a self-cleaving ribozyme", "values": [
      {"variant": "GGCUGAGCUCAACACAGCGUGGCAAAGUUGCUGUGGCUAGUUUGCC", "note": "[A4U G29U A41U C42U]", "self-cleavage": 0.03},
      {"variant": "GGCAGAGCUCAACACACCGUGGCAAAGUGGGUGUGGCGAGACUGCC", "note": "[G17C C31G U38G]", "self-cleavage": 0.03},
      {"variant": "GGCAGAGCUCAACACACCGUGGCAAAGUGGCUGUGACUAGACAGCC", "note": "[G17C G36A U43A]", "self-cleavage": 0.1},
      {"variant": "GGCAGAGCGCAACUCAGCCUGGCAAAGUGGCUGUGUCUAGACUGCC", "note": "[U9G A14U G19C G36U]", "self-cleavage": 0.21},
      {"variant": "GGCAAAGCUAAACACAUCGUGGCAAAGUGGCUGUGGCUAGACUGCC", "note": "[G5A C10A G17U]", "self-cleavage": 0},
      {"variant": "GGCAGAGCUCAAAACAGCGUGGCAAAGUGGCUGUGACUAGAAUGCC", "note": "[C13A G36A C42A]", "self-cleavage": 0.09},
      {"variant": "GGCAGAGCUUAACAUGGCGUGGCAUAGUGGCUGUGGCUAGACUGCC", "note": "[C10U C15U A16G A25U]", "self-cleavage": 0.73},
      {"variant": "GGCAAAGUUCAACACAGCGUGGCAAAGUGGCUGUCGCUAGACUGCC", "note": "[G5A C8U G35C]", "self-cleavage": 0.13},
      {"variant": "GGCAGAGGUCAACACAGCGUGGCAAAUUGGCUGUGGCUAGUCUGCG", "note": "[C8G G27U A41U C46G]", "self-cleavage": 0.06},
      {"variant": "GGCAGAGCUAAACACAGCGUGGCAAAGUGGCCGUGGCUAGACGGCC", "note": "[C10A U32C U43G]", "self-cleavage": 0.05},
      {"variant": "GGCAGGGCUCAACACAGCGUGGCAAAGUGGCUAUGGCUAGACUGCU", "note": "[A6G G33A C46U]", "self-cleavage": 0.02},
      {"variant": "AGCACCGCUCAACACAGCGUGGCUAAGUGGCUGUGGCUAGACGGCC", "note": "[G1A G5C A6C A24U U43G]", "self-cleavage": 0},
      {"variant": "CGCUGAGCUCAACACAGCGUGGCAAAAUGGCAGUGGCUAGACUGCC", "note": "[G1C A4U G27A U32A]", "self-cleavage": 0.04},
      {"variant": "GGCAGACCUGAACACAGCGUGGCAAAGUGUCUGUGGCUAGACUACC", "note": "[G7C C10G G30U G44A]", "self-cleavage": 0},
      {"variant": "GGCAGAGCUCGUCACACCGUGUCAAAGUGGCUGUGGCUAGACUGCC", "note": "[A11G A12U G17C G22U]", "self-cleavage": 0.02},
      {"variant": "GGCAGAGCUAAACACAGCGUGGCAAAGUGGAUGUAGCUAGAGUCCC", "note": "[C10A C31A G35A C42G G44C]", "self-cleavage": 0.02},
      {"variant": "GGCAGAGCUCAACACAGCGUGGCCAAGUGGCUAUGGCUAGACUGGC", "note": "[A24C G33A C45G]", "self-cleavage": 0.02},
      {"variant": "AGCAGAGCUCAGCACAGAGUGGCAAUGUGGCUGUGGCUAGACUGCC", "note": "[G1A A12G C18A A26U]", "self-cleavage": 0.03},
      {"variant": "GGAAGAGCUCAACACAGCGUGGCAAAGUGGCUGUGGCUAGAGUUCC", "note": "[C3A C42G G44U]", "self-cleavage": 0.03},
      {"variant": "GGCUGAGCUCAACACAGCGUGGCAGACUGGCCGUGGCUAGACUGCC", "note": "[A4U A25G G27C U32C]", "self-cleavage": 0.09},
      {"variant": "GGCACAACUCAACACAACGUGGAAAAGUGGCUGUGGCUGGACUGCC", "note": "[G5C G7A G17A C23A A39G]", "self-cleavage": 0.05},
      {"variant": "GGCAGAGCUCAACACAGCGUGCCAAAGUGCCUGUGGCUAGACUGCA", "note": "[G22C G30C C46A]", "self-cleavage": 0.42},
      {"variant": "GGAAGAGCACAACCCAGCGUGGCAAAGUUUCUGUGGCUACACUGCC", "note": "[C3A U9A A14C G29U G30U G40C]", "self-cleavage": 0.03},
      {"variant": "GGCAGAGCUCAACACAGUGUGGCAAAGUGGCUGUGUCUAGACUGCU", "note": "[C18U G36U C46U]", "self-cleavage": 0.06},
      {"variant": "GGCGGUGCUCAACACAGCGUGGCAAAGUGGCUGUGGCCGGACUGCC", "note": "[A4G A6U U38C A39G]", "self-cleavage": 0.13},
      {"variant": "GGCAGAGCUGAACACAGAGUGGCAAAGUGGCUGUGGCUAGCCUGCC", "note": "[C10G C18A A41C]", "self-cleavage": 0.01},
      {"variant": "GGCAGAGCUCAACAUAGCGUGCCAAACUGGAUGUGGCUAGACUGCC", "note": "[C15U G22C G27C C31A]", "self-cleavage": 0.06},
      {"variant": "GGCCGAGCUCAACACAGCGUGGCAAAAUGGCUGUGGCUAGCCUGCC", "note": "[A4C G27A A41C]", "self-cleavage": 0.11},
      {"variant": "GGAAGAGCUCACCACAGCGUGGCUAAGUGGCUGUGGCUCGACUGCU", "note": "[C3A A12C A24U A39C C46U]", "self-cleavage": 0.01},
      {"variant": "GGUAGAGCUCAACACAGCGUGGCAUACUGGCUGGCACUAGACGGCC", "note": "[C3U A25U G27C U34G G35C G36A U43G]", "self-cleavage": 0.1},
      {"variant": "GUCAAAGCUCAACACAGCGUGGCAAAGGGGCUGUGGCUAGACUGCC", "note": "[G2U G5A U28G]", "self-cleavage": 0.04},
      {"variant": "GGCUGAGCUCAACACAGCGUGGUAAUGUGGCUGUGGCUAGACUGCC", "note": "[A4U C23U A26U]", "self-cleavage": 0.22},
      {"variant": "CGGAGAGCUCAACACAGCGUGGCAAAGUGGGUGUGGCUAGACUGCC", "note": "[G1C C3G C31G]", "self-cleavage": 0.08},
      {"variant": "GCCAGAGCUCAACACAGCGUGGCAAAGUGGCUGUGGAUGGACUGUC", "note": "[G2C C37A A39G C45U]", "self-cleavage": 0.18},
      {"variant": "GGCAGAGUUCAACAGAGCGUGGCAAAGUGGCCGUGGCUAGACUACC", "note": "[C8U C15G U32C G44A]", "self-cleavage": 0.14},
      {"variant": "UGCAGAGCUCAACACAGCGUGGUAAAGUCGCUGUGGCUAGCCUGCA", "note": "[G1U C23U G29C A41C C46A]", "self-cleavage": 0.02},
      {"variant": "GGCAGAGCUCAACACCGCGAGGCAAAGUGGCUGUGUCUAGACCGCC", "note": "[A16C U20A G36U U43C]", "self-cleavage": 0},
      {"variant": "GGGAGAGCUCAACACAGCGUGGCAAAGUGGCUGUGCCUAGGCUGCU", "note": "[C3G G36C A41G C46U]", "self-cleavage": 0.01},
      {"variant": "UGAAGAGCUCAACACAGCGUGGAAAAGUGGUUGAAGCUAGACUGCC", "note": "[G1U C3A C23A C31U U34A G35A]", "self-cleavage": 0.06},
      {"variant": "GUCAGAGCUCAACACAGCGUGGCAAAGUGGCUGUGUCUAAACUGCC", "note": "[G2U G36U G40A]", "self-cleavage": 0.02},
      {"variant": "GGCAGAGUUCAACAAAGCGGGGAAAAGUGGUCGUGGCUAGACUGCC", "note": "[C8U C15A U20G C23A C31U U32C]", "self-cleavage": 0.02},
      {"variant": "GUCAGACCGCAACACAGCGUGGCAAAGUGGCUUUGCCUAGUCUGGC", "note": "[G2U G7C U9G G33U G36C A41U C45G]", "self-cleavage": 0},
      {"variant": "GGCAGAACGCAACACAGCGGGGCUAAAUGGCUGUGGCUAGACUGCG", "note": "[G7A U9G U20G A24U G27A C46G]", "self-cleavage": 0.05},
      {"variant": "GGCAGAACUCAUCACAGCGUCGCAAAGUGGCUGUGGAUAGACUGCC", "note": "[G7A A12U G21C C37A]", "self-cleavage": 0.01},
      {"variant": "GGCAGAGCUCAACACAGCGGGGCAAAGGGGCUGUGGCUAUACUGCC", "note": "[U20G U28G G40U]", "self-cleavage": 0.04},
      {"variant": "GGCAGAGCUCAACAAAGAGUGGCGAAGUGGCUGUGGCUAGACUGCC", "note": "[C15A C18A A24G]", "self-cleavage": 0.03},
      {"variant": "CGCAGAGCUCAAUACAGCGUGGCAAAGUGGCUGUGGCUAGAAUGCC", "note": "[G1C C13U C42A]", "self-cleavage": 0.01},
      {"variant": "GGCAUAGCUCAACACAGCGUGGCCAGGUGGCUGUGGCUAGACCGCC", "note": "[G5U A24C A26G U43C]", "self-cleavage": 0.05},
      {"variant": "GAUAGAGCACAACACAGUGUGGCAAAGCGGCAGUGGCUAAACUGCC", "note": "[G2A C3U U9A C18U U28C U32A G40A]", "self-cleavage": 0.06},
      {"variant": "UGCAGAGCUAAACACAGCGUGGUAAAGUCGCUGUGGCUAGACUGCC", "note": "[G1U C10A C23U G29C]", "self-cleavage": 0.02},
      {"variant": "GGCAGAGCCCAACGCAGCGUGGCAAAGUGGCUUUGGCUAGAGUGCC", "note": "[U9C A14G G33U C42G]", "self-cleavage": 0.03},
      {"variant": "GGCAGAGCUCUACACAGCGUGGCAAAGUGGCUGUGGAUAGACUCAC", "note": "[A11U C37A G44C C45A]", "self-cleavage": 0.01},
      {"variant": "GGCAGAGCUCAACACAGCGCGGCAAUGUAGCAGUGGCCAGACUGCC", "note": "[U20C A26U G29A U32A U38C]", "self-cleavage": 0.08},
      {"variant": "GGCAGAGCUCAAUGCAGCGUGGUACAGUGGCUGUGGCUAGACUGCC", "note": "[C13U A14G C23U A25C]", "self-cleavage": 0.09},
      {"variant": "CGCAGAGCUCAACACAGCGUGGCAAAGUGGAUGUGGCACUACUGCC", "note": "[G1C C31A U38A A39C G40U]", "self-cleavage": 0.01},
      {"variant": "GGCAGAGCUCAACACAGCGUGGCAAAGUUGCCGUGGCUAGAUUGCC", "note": "[G29U U32C C42U]", "self-cleavage": 0.68}
    ]}
  ]
}
